# Values joined by “and” are separate entries in the source; they are usually repeats but may differ in a detail not shown here. Identical values can stand only once. In all, about 270,000 compounds went through this assay and about 5,800 (2.1%) were called active. The inconclusive results got no clear call from the source; some entries with a clear call stand among them for comparison. The call rests on the fitted dose curve; in most records, active means well fitted inhibition curve with a large enough effect; inconclusive means small, poorly fitted or top-dose-only effect; inactive means flat fitted curve, though single readings scatter. Where the call is inconclusive, the potency comes from a doubtful curve fit.
# Molecular target: Microtubule-associated protein tau (Homo sapiens) (UniProt P10636)
# Sequence of UniProt P10636 (P10636 whole entry, looked up): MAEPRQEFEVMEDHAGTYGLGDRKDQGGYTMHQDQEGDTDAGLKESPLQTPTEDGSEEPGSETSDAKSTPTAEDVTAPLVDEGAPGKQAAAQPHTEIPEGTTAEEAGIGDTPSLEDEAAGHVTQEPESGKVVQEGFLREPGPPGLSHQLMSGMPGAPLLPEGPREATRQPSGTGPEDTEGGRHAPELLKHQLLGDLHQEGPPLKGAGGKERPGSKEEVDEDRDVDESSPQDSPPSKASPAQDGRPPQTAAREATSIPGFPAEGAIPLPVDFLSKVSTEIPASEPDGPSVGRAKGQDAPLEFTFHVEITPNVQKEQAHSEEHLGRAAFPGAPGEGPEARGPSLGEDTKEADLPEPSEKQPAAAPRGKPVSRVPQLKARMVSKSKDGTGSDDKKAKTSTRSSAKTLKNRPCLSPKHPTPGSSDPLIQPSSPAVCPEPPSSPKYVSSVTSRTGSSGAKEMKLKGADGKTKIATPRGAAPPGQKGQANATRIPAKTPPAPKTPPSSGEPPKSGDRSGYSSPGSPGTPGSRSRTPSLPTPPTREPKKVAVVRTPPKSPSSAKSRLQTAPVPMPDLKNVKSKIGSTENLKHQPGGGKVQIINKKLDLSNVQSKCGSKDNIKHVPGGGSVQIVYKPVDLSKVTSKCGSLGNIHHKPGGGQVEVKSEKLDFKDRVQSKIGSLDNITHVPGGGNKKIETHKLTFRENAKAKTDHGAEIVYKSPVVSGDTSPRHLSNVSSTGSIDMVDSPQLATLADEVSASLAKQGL
# Assay: qHTS for Inhibitors of Tau Fibril Formation, Thioflavin T Binding; further: nearly all actives have a fitted effect of over 55% in size
# Conditions: recombinant tau K18 P301L (four-repeat tau fragment), heparin-induced fibrillization, ThT fluorescence; series mostly up to 57.4 µM; activity, negative = inhibition: at the top concentration
# Summary of the method: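 K18 P301L tau (15 uM + 0.24 uM Alexa 594-tagged), heparin 20 uM, NaOAc pH 7, 6 h 37 C; ThT 30 uM, 1 h RT, ex 450/em 510 nm.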
# On the % scale 0 is the no-effect control and ±100 the full control effect; potency means the concentration at half of the fitted maximal effect; tags describe the fitted curve by direction and shape.
Compound,Potency,"activity, negative = inhibition"
CN1C[C@H](CO)C=C2c3cccc4[nH]cc(c34)C[C@H]21,"inconclusive: 31.6 µM [inhibitor, single point]",
Oc1ccc2c3c1O[C@H]1c4c(c5ccccc5n4Cc4ccccc4)C[C@@]4(O)C(C2)N(CC2CC2)CC[C@]314,,inactive: -17.5%
CCOc1ccc(NCc2cccn2-c2nnc(N3CCC(C(=O)NCC(C)c4ccccc4)CC3)s2)cc1 (configuration not stated),"inconclusive: 7.08 µM [inhibitor, partial curve]",
COC1=CC(=O)OC(/C=C/c2ccccc2)C1 (configuration not stated),"inconclusive: 10 µM [inhibitor, partial curve] and inconclusive: 28.2 µM [inhibitor, single point]",
Cc1ccc2c(c1)CC1(CN2C)C(=O)NC(=O)N(CCC2=CCCCC2)C1=O (configuration not stated),active: 25.1 µM,
CCCCC/C=C\C/C=C\C/C=C\CCCCC(=O)NCCO,,inactive: 5.16%
Cn1ncnc2c(=O)n(C)c(=O)nc1-2,active: 11.2 µM,
O=C1C2CCCN2C(c2ccccc2)N1c1ccccn1 (configuration not stated),"inconclusive: 5.01 µM [inhibitor, full curve]",
O=C1C=C2C(=CCOC2O)O1 (configuration not stated),active: 2.24 µM,
O=c1c2ccccc2nc(SCC2CCCCO2)n1-c1ccccc1 (configuration not stated),,inactive: -1.92%
CCOC(=O)[C@]1(C#N)[C@@H]2C=CC(C(N)=O)=CN2[C@@H](C(N)=O)[C@@H]1c1ccc(F)cc1,"inconclusive: 44.7 µM [inhibitor, single point]",
O=C1NC(=O)N(CCc2ccc(F)cc2)C(=O)/C1=C/c1ccco1,active: 10 µM,
NC(Cc1cc(O)c(O)cc1O)C(=O)O (configuration not stated),active: 14.1 µM,
CCC(C)C(=O)OC1C2CC3=C4CC(=O)OC(c5ccoc5)[C@]4(C)CCC3[C@@](C)(C2=O)C(CC(=O)OC)C1(C)C (some centres not stated),"inconclusive: 35.5 µM [inhibitor, partial curve]",
C/C=C1/C[C@@H](C)[C@](O)(CO)C(=O)OCC2=CCN3CC[C@@H](OC1=O)C23 (some centres not stated),,inactive: -12.4%
CCCCC(=O)N/N=C/c1c(O)n(C2CC2)c(=S)[nH]c1=O,"inconclusive: 28.2 µM [inhibitor, single point]",

Compound,Potency,"activity, negative = inhibition"
CC[C@@H]1CN2CC[C@@H]1C[C@H]2[C@H](O)c1ccnc2ccc(OC)cc12,,inactive: -4.88%
CCOc1cc(C=C2C(=O)NC(=O)NC2=O)cc([N+](=O)[O-])c1O,"inconclusive: 4.47 µM [inhibitor, full curve]",
CCc1nnc(NS(=O)(=O)c2ccc(N=Cc3c(O)n(-c4ccccc4)c(=O)[nH]c3=O)cc2)s1,"inconclusive: 12.6 µM [inhibitor, partial curve]",
COc1ccccc1N1CCN(Cc2ccc(Cl)cc2Cl)CC1,"inconclusive: 31.6 µM [inhibitor, partial curve]",
Cc1cc(N2C(=O)CC(N3CCC(n4c(=O)[nH]c5ccccc54)CC3)C2=O)no1 (configuration not stated),"inconclusive: 28.2 µM [inhibitor, single point]",
CCCCCCn1c(N)c(C(=O)NCCN2CCOCC2)c2nc3ccccc3nc21,"inconclusive: 17.8 µM [inhibitor, single point]",
NC1=C(Br)C(=O)c2ccccc2C1=O,"inconclusive: 14.1 µM [inhibitor, partial curve]",
O=C1Nc2ccccc2Sc2ccccc21,,inactive: 14.2%
COC(=O)/C=C/C(=O)N[C@@H]1CC[C@@]2(O)[C@H]3Cc4ccc(O)c5c4[C@@]2(CCN3CC2CC2)[C@H]1O5,,inactive: 4.64%
COC(=O)N(c1ccccc1)P1(=S)OCCO1,"inconclusive: 25.1 µM [inhibitor, single point]",
CC(=O)N1CCN(CC(=O)Nc2ccc(C#N)c(Cl)c2)CC1,,inactive: -2.67%
Cc1[nH]c2ccccc2c1C1=CCNCC1,"inconclusive: 25.1 µM [inhibitor, single point]",
CC(C)c1ccc(-n2c(O)c(/C=N/NC(=O)c3ccccc3O)c(=O)[nH]c2=S)cc1,"inconclusive: 17.8 µM [inhibitor, partial curve]",
Cc1cc(C)cc(OCC(=O)Nc2ccc(-c3nc4ccccc4s3)cc2)c1,"inconclusive: 0.501 µM [inhibitor, full curve]",
COc1ccccc1-n1c(O)c(C=NC2CC2)c(=O)[nH]c1=O,"inconclusive: 31.6 µM [inhibitor, partial curve, poor fit]",
CN1CCc2nc(SCC(=O)OC(C)(C)C)c(C#N)cc2C1,"inconclusive: 35.5 µM [inhibitor, single point]",

# Reference: PubChem BioAssay AID1460 (National Center for Advancing Translational Sciences (NCATS), 2008)
